{"source": "the BET-seq Pho4 binding data (Le et al. 2018)", "note": "The list shows a part of the results. The energies were worked out here from pooled read counts, against the library average; single values are noisy."}
{"molecular_target": "T1, Pho4 (S. cerevisiae) (UniProt P07270)", "T1 sequence": "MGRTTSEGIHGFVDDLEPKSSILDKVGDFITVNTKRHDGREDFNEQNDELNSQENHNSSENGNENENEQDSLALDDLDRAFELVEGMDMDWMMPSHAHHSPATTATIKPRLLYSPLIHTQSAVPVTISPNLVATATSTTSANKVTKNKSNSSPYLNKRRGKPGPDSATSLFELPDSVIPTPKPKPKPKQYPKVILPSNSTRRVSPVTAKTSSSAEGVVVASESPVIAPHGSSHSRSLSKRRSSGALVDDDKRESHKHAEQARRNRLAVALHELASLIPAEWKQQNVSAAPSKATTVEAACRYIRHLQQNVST", "assay": "relative binding free energy (BET-seq); higher = weaker binding", "details": "reference: library average", "units": {"relative binding free energy": "kcal/mol"}}
{"sequence": "TTTAACACGTGGAGCT", "relative binding free energy": 0.07}
{"sequence": "CTGGTCACGTGTGGGG", "relative binding free energy": 0.08}
{"sequence": "TTGTTCACGTGGGACA", "relative binding free energy": 0.2}
{"sequence": "GTGGACACGTGATGCG", "relative binding free energy": 0.19}
{"sequence": "GTCTTCACGTGTGTAT", "relative binding free energy": 0.24}
{"sequence": "AGAAGCACGTGAGCGG", "relative binding free energy": 0.13}
{"sequence": "GGTGACACGTGTTAGG", "relative binding free energy": 0.06}
{"sequence": "AATGTCACGTGATATA", "relative binding free energy": 0.15}
{"sequence": "AGGTACACGTGCGGTT", "relative binding free energy": 0}
{"sequence": "GGTACCACGTGATTGT", "relative binding free energy": 0.11}
{"sequence": "TTATCCACGTGGGCTT", "relative binding free energy": -0.07}
{"sequence": "TGGGTCACGTGCGGGG", "relative binding free energy": 0.09}
{"sequence": "CGGGTCACGTGGAAGA", "relative binding free energy": 0.05}
{"sequence": "ACGTACACGTGTGTTT", "relative binding free energy": 0.09}
{"sequence": "TAGTGCACGTGGTCGG", "relative binding free energy": -0.12}
{"sequence": "TGTCGCACGTGTGGCT", "relative binding free energy": 0}
{"sequence": "GTATGCACGTGGTTAA", "relative binding free energy": -0.21}
{"sequence": "TTAATCACGTGTAGAA", "relative binding free energy": 0.16}
{"sequence": "CTCGTCACGTGATGTT", "relative binding free energy": 0.19}
{"sequence": "GCTTTCACGTGGTTTA", "relative binding free energy": 0.29}
{"sequence": "CTTTGCACGTGAAGGG", "relative binding free energy": 0.27}
{"sequence": "AGATACACGTGTAGGT", "relative binding free energy": 0.1}
{"sequence": "GTTAACACGTGGTGAT", "relative binding free energy": -0.03}
{"sequence": "ATGGTCACGTGTCTCA", "relative binding free energy": 0.31}
{"sequence": "TGTCGCACGTGTACTG", "relative binding free energy": -0.04}
{"sequence": "GTAGACACGTGTTATT", "relative binding free energy": 0.06}
{"sequence": "TTGTTCACGTGCGAGC", "relative binding free energy": 0.51}
{"sequence": "TGAATCACGTGTCTGG", "relative binding free energy": 0.2}
{"sequence": "TGGTACACGTGTGTTC", "relative binding free energy": 0.22}
{"sequence": "TGTGCCACGTGAGATG", "relative binding free energy": 0.3}
{"sequence": "GAGTTCACGTGGTAAT", "relative binding free energy": 0.32}
{"sequence": "ATTGTCACGTGGTTTT", "relative binding free energy": 0.08}
{"sequence": "ATCATCACGTGTTAGT", "relative binding free energy": 0.14}
{"sequence": "GATTGCACGTGTGTAA", "relative binding free energy": 0}
{"sequence": "AGGTTCACGTGGAAGA", "relative binding free energy": 0.2}
{"sequence": "TATGGCACGTGGAGTA", "relative binding free energy": -0.16}
{"sequence": "TTTGACACGTGGTATA", "relative binding free energy": -0.07}
{"sequence": "TTGTTCACGTGCCTGT", "relative binding free energy": 0.1}
{"sequence": "GTATTCACGTGTACTG", "relative binding free energy": 0.33}
{"sequence": "TCTGACACGTGTGGCG", "relative binding free energy": 0.15}
{"sequence": "CGGGTCACGTGGATTG", "relative binding free energy": 0.08}
{"sequence": "GTGGTCACGTGGCTTT", "relative binding free energy": 0.11}
{"sequence": "GGGGTCACGTGGGTTC", "relative binding free energy": 0.06}
{"sequence": "TGAGACACGTGTGGAA", "relative binding free energy": 0.24}
{"sequence": "GTGCGCACGTGTAGGC", "relative binding free energy": -0.1}
{"sequence": "AGTTGCACGTGTAGAT", "relative binding free energy": 0.33}
{"sequence": "TCGGGCACGTGAGGAT", "relative binding free energy": 0.19}
{"sequence": "GCATTCACGTGTTATT", "relative binding free energy": 0.21}
{"sequence": "AAAGTCACGTGGTTCG", "relative binding free energy": 0.08}
{"sequence": "ACGGGCACGTGAGGGC", "relative binding free energy": 0.07}
{"sequence": "GGGCTCACGTGGCTGT", "relative binding free energy": 0.27}
{"sequence": "AGTAGCACGTGACGGG", "relative binding free energy": -0.01}
{"sequence": "CAATTCACGTGTTTGT", "relative binding free energy": 0.28}
{"sequence": "TTCTGCACGTGGGAGC", "relative binding free energy": -0.01}
{"sequence": "ATTTTCACGTGTGGGA", "relative binding free energy": 0.24}
{"sequence": "TTTCGCACGTGCTTTG", "relative binding free energy": 0.01}
{"sequence": "ATCCTCACGTGTTGTT", "relative binding free energy": 0.18}
{"sequence": "GTGAGCACGTGGGAGG", "relative binding free energy": -0.15}
{"sequence": "ATACGCACGTGGTTGT", "relative binding free energy": -0.22}
{"sequence": "TGCGGCACGTGTTTTT", "relative binding free energy": 0.07}
{"sequence": "TACAACACGTGTGGTG", "relative binding free energy": 0}
{"sequence": "GAGGTCACGTGTGCTG", "relative binding free energy": 0.08}
{"sequence": "TAGGTCACGTGTCATA", "relative binding free energy": 0.17}
{"sequence": "AGCGGCACGTGTGTGC", "relative binding free energy": -0.2}
{"sequence": "CGCTTCACGTGTAGTG", "relative binding free energy": 0.12}
{"sequence": "GAATTCACGTGAGGTG", "relative binding free energy": 0.4}
{"sequence": "CCGTTCACGTGTTTAG", "relative binding free energy": 0.38}
{"sequence": "AATATCACGTGGTAGG", "relative binding free energy": 0.07}
{"sequence": "TTCAACACGTGTGAGT", "relative binding free energy": 0}
{"sequence": "TGTATCACGTGTGATG", "relative binding free energy": 0.15}
{"sequence": "ACGGTCACGTGGGTAG", "relative binding free energy": 0.07}
{"sequence": "AGTATCACGTGTATTC", "relative binding free energy": 0.09}
{"sequence": "GGTAACACGTGTGCTT", "relative binding free energy": 0.2}
{"sequence": "GGGTGCACGTGGGTTC", "relative binding free energy": -0.14}
{"sequence": "GGTTACACGTGGAGGC", "relative binding free energy": 0.24}
{"sequence": "TATGGCACGTGGGTCT", "relative binding free energy": -0.21}
{"sequence": "CCTTGCACGTGTGGTG", "relative binding free energy": 0.12}
{"sequence": "AATTGCACGTGGGTTA", "relative binding free energy": -0.19}
{"sequence": "GTTTACACGTGCGTGA", "relative binding free energy": 0.1}
{"sequence": "CTAGCCACGTGTGTGG", "relative binding free energy": -0.14}
{"sequence": "TTAATCACGTGTGGAC", "relative binding free energy": 0.34}
{"sequence": "AATGACACGTGGGTTC", "relative binding free energy": 0.01}
{"sequence": "CGGATCACGTGTTGGT", "relative binding free energy": 0.19}
{"sequence": "TTTAACACGTGGAGGC", "relative binding free energy": 0.23}
{"sequence": "GCTGACACGTGTTTGG", "relative binding free energy": -0.06}
{"sequence": "TAGGTCACGTGGCAAG", "relative binding free energy": -0.03}
{"sequence": "GGGCGCACGTGCGATG", "relative binding free energy": -0.08}
{"sequence": "TCGTGCACGTGAACGG", "relative binding free energy": 0.21}
{"sequence": "GCAGTCACGTGTGTTA", "relative binding free energy": 0.28}
{"sequence": "TGTGTCACGTGGATAA", "relative binding free energy": 0.1}
{"sequence": "GTAGCCACGTGGTTGT", "relative binding free energy": -0.06}
{"sequence": "CGCTTCACGTGTTAGG", "relative binding free energy": 0.36}
{"sequence": "TAGGGCACGTGGAAAA", "relative binding free energy": 0.08}
{"sequence": "GGTAGCACGTGGGCTT", "relative binding free energy": -0.2}
{"sequence": "TTTTGCACGTGGTCTT", "relative binding free energy": -0.09}
{"sequence": "TTGGTCACGTGTCATT", "relative binding free energy": 0.08}
{"sequence": "TCTATCACGTGTTTAG", "relative binding free energy": 0.12}
{"sequence": "GTTATCACGTGATATG", "relative binding free energy": 0.32}
{"sequence": "TAGTTCACGTGTACGG", "relative binding free energy": 0.4}
{"sequence": "AGAGTCACGTGATGGC", "relative binding free energy": 0.29}
{"sequence": "CTTCTCACGTGTTGGT", "relative binding free energy": 0.26}
{"sequence": "TTGGTCACGTGCGCGT", "relative binding free energy": -0.07}
{"sequence": "CATGGCACGTGGGGAT", "relative binding free energy": -0.19}
{"sequence": "TGTGTCACGTGGCCTA", "relative binding free energy": 0.11}
{"sequence": "GTCATCACGTGCGTTT", "relative binding free energy": 0.13}
{"sequence": "AAGGTCACGTGAAGGG", "relative binding free energy": 0.32}
{"sequence": "TGCTTCACGTGAAGCT", "relative binding free energy": 0.4}
{"sequence": "TCATGCACGTGGAGGT", "relative binding free energy": -0.12}
{"sequence": "GTTAACACGTGCAGGT", "relative binding free energy": 0.05}
{"sequence": "TTTGGCACGTGTCAGT", "relative binding free energy": -0.12}
{"sequence": "TTAGACACGTGTGCTG", "relative binding free energy": -0.03}
{"sequence": "TGATGCACGTGAAGTA", "relative binding free energy": 0.22}
{"sequence": "CAGTGCACGTGGTTAG", "relative binding free energy": -0.09}
{"sequence": "GTTCGCACGTGGTAGA", "relative binding free energy": -0.02}
{"sequence": "TGGTTCACGTGTGTGT", "relative binding free energy": 0.31}
{"sequence": "TTGTTCACGTGTGATG", "relative binding free energy": 0.25}
{"sequence": "TTATGCACGTGGCGTC", "relative binding free energy": -0.12}
{"sequence": "AGTTGCACGTGATGAG", "relative binding free energy": 0.15}
{"sequence": "TAGTTCACGTGGGTAT", "relative binding free energy": 0.17}
{"sequence": "ATGGGCACGTGTAGTA", "relative binding free energy": -0.19}
{"sequence": "TTGTGCACGTGCTTTA", "relative binding free energy": -0.05}
{"sequence": "AGTGGCACGTGTTAGC", "relative binding free energy": -0.16}
{"sequence": "CTTTGCACGTGTTGCG", "relative binding free energy": -0.01}
{"sequence": "AGTGCCACGTGTGAGT", "relative binding free energy": -0.01}
{"sequence": "GCTGGCACGTGGTTCT", "relative binding free energy": -0.04}
{"sequence": "CTGGGCACGTGGCGAG", "relative binding free energy": -0.24}
{"sequence": "GAGGTCACGTGTCAGT", "relative binding free energy": 0.15}
{"sequence": "CATGGCACGTGGAGGG", "relative binding free energy": -0.24}
{"sequence": "AATTACACGTGATGGT", "relative binding free energy": 0.25}
{"sequence": "TCATGCACGTGTTGGT", "relative binding free energy": -0.16}
{"sequence": "CTTGGCACGTGCAGTG", "relative binding free energy": -0.09}
{"sequence": "CAGATCACGTGGGGTA", "relative binding free energy": -0.05}
{"sequence": "GTGAACACGTGTGATG", "relative binding free energy": 0.01}
{"sequence": "GGCGACACGTGGTATG", "relative binding free energy": -0.03}
{"sequence": "ATTTGCACGTGGTGAC", "relative binding free energy": -0.09}
{"sequence": "GGGTCCACGTGGGAGG", "relative binding free energy": 0.05}
{"sequence": "TTCGTCACGTGGGGTC", "relative binding free energy": -0.05}
{"sequence": "GTGAGCACGTGCGGTT", "relative binding free energy": -0.02}
{"sequence": "GGCATCACGTGGTGTT", "relative binding free energy": 0.05}
{"sequence": "TTGGTCACGTGCATGA", "relative binding free energy": 0.06}
{"sequence": "TGAGGCACGTGTATGG", "relative binding free energy": -0.09}
{"sequence": "AGGATCACGTGGCGTG", "relative binding free energy": 0.01}
{"sequence": "ATTGTCACGTGTAACT", "relative binding free energy": 0.16}
{"sequence": "GGGGACACGTGGGTAT", "relative binding free energy": -0.12}
{"sequence": "GTGATCACGTGAGGTG", "relative binding free energy": 0.27}
{"sequence": "TATTACACGTGAGGGA", "relative binding free energy": 0.4}
